Assay results published in the supplement of paper PMC10037445.
The full ranking holds about 2,900 compounds; the median of “NF-kB SEAP reporter activity, fold change vs agonist alone” is about 0.99, and the highest 2% start at about 2.6. The list shows a part of the results.

Legend:
RAW-Dual [1] = test: NF-kB SEAP reporter activity, fold change vs agonist alone; higher = enhanced NF-kB activity; settings: library stock concentration (final ~1000-fold dilution): 10 mM
Procedure, shortened: (§1)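 Library stock was pin-tooled at 50 nL into 384-well plates of RAW-Dual macrophages (50,000 cells/well, DMEM), followed 1 h later by a PRR agonist, and the cells were kept at 37 °C, 5% CO2. Supernatant collected after 20 hours was read for IRF by QuantiLuc luminescence and for NF-κB by QuantiBlue absorbance at 620 nm. Reporter activity is fold change over agonist-alone wells, and a well counted as cytotoxic when its IncuCyte confluency was below 70% of agonist controls in both mask sets.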

RAW-Dual [2] = test: NF-kB SEAP reporter activity, fold change vs agonist alone; cytotoxicity flag (confluency mask): not cytotoxic; higher = enhanced NF-kB activity
Procedure, shortened: as §1

RAW-Dual [3] = test: NF-kB SEAP reporter activity, fold change vs agonist alone; cytotoxicity flag (confluency mask): cytotoxic (confluency <70% of control); higher = enhanced NF-kB activity
Procedure, shortened: as §1

[4] = cytotoxicity flag (confluency mask): not cytotoxic, agonist: Imiquimod (TLR7) […]
[5] = cytotoxicity flag (confluency mask): not cytotoxic, agonist: MPLA (TLR4) […]
[6] = agonist: ODN 1826 (TLR9) 0.5 ug/mL
[7] = agonist: Pam2CSK4 (TLR2/6) 0.1 ug/mL
[8] = agonist: Pam3CSK4 (TLR2/1) 0.1 ug/mL
[9] = cytotoxicity flag (confluency mask): cytotoxic (confluency <70% of control), agonist: Imiquimod (TLR7) […]
[10] = cytotoxicity flag (confluency mask): cytotoxic (confluency <70% of control), agonist: MPLA (TLR4) […]

Compound: COc1cc2c(cc1O)CC1c3c(cc(O)c(OC)c3-2)CCN1C (stereo not drawn)
- NF-kB SEAP reporter activity (RAW-Dual [1]; [4]): 0.85
- NF-kB SEAP reporter activity (RAW-Dual [1]; [5]): 0.895

Compound: Cc1sc2c(c1C)C(c1ccc(Cl)cc1)=NC(CC(=O)Nc1ccc(O)cc1)c1nnc(C)n1-2 (stereo not drawn) (library stock concentration (final ~1000-fold dilution): 10 mM)
- NF-kB SEAP reporter activity (RAW-Dual [2]; agonist: LPS (TLR4) 0.1 ug/mL): 3.19

Compound: COc1cc(OC)c(OC)cc1C=O
- NF-kB SEAP reporter activity (RAW-Dual [1]; [4]): 0.908
- NF-kB SEAP reporter activity (RAW-Dual [1]; [5]): 1.01

Compound: COc1cc(OC)c(OC)cc1C=O (library stock concentration (final ~1000-fold dilution): 10 mM)
- NF-kB SEAP reporter activity (RAW-Dual [2]; agonist: LPS (TLR4) 0.1 ug/mL): 0.937
- NF-kB SEAP reporter activity (RAW-Dual [2]; [6]): 0.964
- NF-kB SEAP reporter activity (RAW-Dual [2]; [7]): 1.14
- NF-kB SEAP reporter activity (RAW-Dual [2]; [8]): 1.01

Compound: Cc1sc2c(c1C)C(c1ccc(Cl)cc1)=NC(CC(N)=O)c1nnc(C)n1-2 (stereo not drawn) (library stock concentration (final ~1000-fold dilution): 10 mM)
- NF-kB SEAP reporter activity (RAW-Dual [2]; agonist: LPS (TLR4) 0.1 ug/mL): 2.51
- NF-kB SEAP reporter activity (RAW-Dual [2]; [6]): 1.97
- NF-kB SEAP reporter activity (RAW-Dual [2]; [7]): 0.734
- NF-kB SEAP reporter activity (RAW-Dual [2]; [8]): 1.69

Compound: Cc1sc2c(c1C)C(c1ccc(Cl)cc1)=NC(CC(N)=O)c1nnc(C)n1-2 (stereo not drawn)
- NF-kB SEAP reporter activity (RAW-Dual [1]; [4]): 1.43
- NF-kB SEAP reporter activity (RAW-Dual [1]; [5]): 2.38

Compound: O=C(CC1NCCCC1O)Cn1cnc2cc(Br)c(Cl)cc2c1=O (stereo not drawn)
- NF-kB SEAP reporter activity (RAW-Dual [1]; [9]): 0.144
- NF-kB SEAP reporter activity (RAW-Dual [1]; [10]): 0.256

Compound: O=C(CC1NCCCC1O)Cn1cnc2cc(Br)c(Cl)cc2c1=O (stereo not drawn) (library stock concentration (final ~1000-fold dilution): 10 mM)
- NF-kB SEAP reporter activity (RAW-Dual [3]; agonist: LPS (TLR4) 0.1 ug/mL): 0.367
- NF-kB SEAP reporter activity (RAW-Dual [3]; [6]): 0.194
- NF-kB SEAP reporter activity (RAW-Dual [3]; [7]): 0.0662
- NF-kB SEAP reporter activity (RAW-Dual [3]; [8]): 0.136

Compound: O=c1[nH]c2ccccc2n1C1CCN(Cc2ccc(-c3nc4cc5nc[nH]c5cc4nc3-c3ccccc3)cc2)CC1
- NF-kB SEAP reporter activity (RAW-Dual [1]; [4]): 0.45
- NF-kB SEAP reporter activity (RAW-Dual [1]; [5]): 1.05

Compound: O=c1[nH]c2ccccc2n1C1CCN(Cc2ccc(-c3nc4cc5nc[nH]c5cc4nc3-c3ccccc3)cc2)CC1 (library stock concentration (final ~1000-fold dilution): 10 mM)
- NF-kB SEAP reporter activity (RAW-Dual [2]; agonist: LPS (TLR4) 0.1 ug/mL): 1.2
- NF-kB SEAP reporter activity (RAW-Dual [2]; [6]): 0.187
- NF-kB SEAP reporter activity (RAW-Dual [2]; [7]): 0.317
- NF-kB SEAP reporter activity (RAW-Dual [2]; [8]): 0.427

Compound: CN(C)C(=O)Oc1cc(OC(=O)N(C)C)cc(C(O)CNC(C)(C)C)c1.Cl (stereo not drawn)
- NF-kB SEAP reporter activity (RAW-Dual [1]; [4]): 0.983
- NF-kB SEAP reporter activity (RAW-Dual [1]; [5]): 1.12

Compound: CN(C)C(=O)Oc1cc(OC(=O)N(C)C)cc(C(O)CNC(C)(C)C)c1.Cl (stereo not drawn) (library stock concentration (final ~1000-fold dilution): 10 mM)
- NF-kB SEAP reporter activity (RAW-Dual [2]; agonist: LPS (TLR4) 0.1 ug/mL): 0.964
- NF-kB SEAP reporter activity (RAW-Dual [2]; [6]): 1.07
- NF-kB SEAP reporter activity (RAW-Dual [2]; [7]): 1.06
- NF-kB SEAP reporter activity (RAW-Dual [2]; [8]): 1.04

Compound: C=C(C)C1Cc2c(ccc3c2OC2COc4cc(OC)c(OC)cc4C2C3=O)O1 (stereo not drawn)
- NF-kB SEAP reporter activity (RAW-Dual [1]; [4]): 1.87
- NF-kB SEAP reporter activity (RAW-Dual [1]; [5]): 1.85

Compound: C=C(C)C1Cc2c(ccc3c2OC2COc4cc(OC)c(OC)cc4C2C3=O)O1 (stereo not drawn) (library stock concentration (final ~1000-fold dilution): 10 mM)
- NF-kB SEAP reporter activity (RAW-Dual [2]; agonist: LPS (TLR4) 0.1 ug/mL): 3.13
- NF-kB SEAP reporter activity (RAW-Dual [2]; [6]): 2.36
- NF-kB SEAP reporter activity (RAW-Dual [2]; [7]): 1.27
- NF-kB SEAP reporter activity (RAW-Dual [2]; [8]): 1.45

Compound: CCN(CC)CCOC(=O)C(O)(c1ccccc1)c1ccccc1.Cl (library stock concentration (final ~1000-fold dilution): 10 mM)
- NF-kB SEAP reporter activity (RAW-Dual [2]; agonist: LPS (TLR4) 0.1 ug/mL): 1.2
- NF-kB SEAP reporter activity (RAW-Dual [2]; [6]): 0.872
- NF-kB SEAP reporter activity (RAW-Dual [2]; [7]): 1.14
- NF-kB SEAP reporter activity (RAW-Dual [2]; [8]): 1.07

Compound: CCN(CC)CCOC(=O)C(O)(c1ccccc1)c1ccccc1.Cl
- NF-kB SEAP reporter activity (RAW-Dual [1]; [4]): 0.909
- NF-kB SEAP reporter activity (RAW-Dual [1]; [5]): 1.01

Compound: Cn1c(CCCCCCC(=O)NO)nc2cc(N(CCCl)CCCl)ccc21
- NF-kB SEAP reporter activity (RAW-Dual [1]; [9]): 1.62
- NF-kB SEAP reporter activity (RAW-Dual [1]; [10]): 2.33

Compound: Cn1c(CCCCCCC(=O)NO)nc2cc(N(CCCl)CCCl)ccc21 (library stock concentration (final ~1000-fold dilution): 10 mM)
- NF-kB SEAP reporter activity (RAW-Dual [3]; agonist: LPS (TLR4) 0.1 ug/mL): 3.35
- NF-kB SEAP reporter activity (RAW-Dual [3]; [6]): 1.5
- NF-kB SEAP reporter activity (RAW-Dual [3]; [7]): 1.55
- NF-kB SEAP reporter activity (RAW-Dual [3]; [8]): 1.91

Compound: CCCCCc1cc(O)cc(O)c1 (library stock concentration (final ~1000-fold dilution): 10 mM)
- NF-kB SEAP reporter activity (RAW-Dual [2]; agonist: LPS (TLR4) 0.1 ug/mL): 1.11
- NF-kB SEAP reporter activity (RAW-Dual [2]; [6]): 0.427
- NF-kB SEAP reporter activity (RAW-Dual [2]; [7]): 0.966
- NF-kB SEAP reporter activity (RAW-Dual [2]; [8]): 0.739

Compound: CCCCCc1cc(O)cc(O)c1
- NF-kB SEAP reporter activity (RAW-Dual [1]; [5]): 0.946

Compound: COc1cc(C2c3cc4c(cc3C(O)C3COC(=O)C23)OCO4)cc(OC)c1O (stereo not drawn) (library stock concentration (final ~1000-fold dilution): 10 mM)
- NF-kB SEAP reporter activity (RAW-Dual [2]; agonist: LPS (TLR4) 0.1 ug/mL): 3.91
- NF-kB SEAP reporter activity (RAW-Dual [2]; [6]): 3.47
- NF-kB SEAP reporter activity (RAW-Dual [2]; [7]): 2.24
- NF-kB SEAP reporter activity (RAW-Dual [2]; [8]): 2.24

Compound: COc1cc(C2c3cc4c(cc3C(O)C3COC(=O)C23)OCO4)cc(OC)c1O (stereo not drawn)
- NF-kB SEAP reporter activity (RAW-Dual [1]; [4]): 2.53
- NF-kB SEAP reporter activity (RAW-Dual [1]; [5]): 2.24

Compound: C=C1C2CC3(C1O)C1CC4C5(C)CCC(O)C4(C1N(CC)C5)C3CC2=O (stereo not drawn) (library stock concentration (final ~1000-fold dilution): 10 mM)
- NF-kB SEAP reporter activity (RAW-Dual [2]; agonist: LPS (TLR4) 0.1 ug/mL): 1.24
- NF-kB SEAP reporter activity (RAW-Dual [2]; [6]): 0.894
- NF-kB SEAP reporter activity (RAW-Dual [2]; [7]): 1.08
- NF-kB SEAP reporter activity (RAW-Dual [2]; [8]): 1.26

Compound: C=C1C2CC3(C1O)C1CC4C5(C)CCC(O)C4(C1N(CC)C5)C3CC2=O (stereo not drawn)
- NF-kB SEAP reporter activity (RAW-Dual [1]; [4]): 0.914
- NF-kB SEAP reporter activity (RAW-Dual [1]; [5]): 0.994

Compound: Cl.Clc1ccc(C(OCCN2CCCCC2)c2ccccc2)cc1 (stereo not drawn) (library stock concentration (final ~1000-fold dilution): 10 mM)
- NF-kB SEAP reporter activity (RAW-Dual [3]; agonist: LPS (TLR4) 0.1 ug/mL): 0.653
- NF-kB SEAP reporter activity (RAW-Dual [3]; [6]): 1
- NF-kB SEAP reporter activity (RAW-Dual [3]; [7]): 0.512
- NF-kB SEAP reporter activity (RAW-Dual [3]; [8]): 0.52

Compound: Cl.Clc1ccc(C(OCCN2CCCCC2)c2ccccc2)cc1 (stereo not drawn)
- NF-kB SEAP reporter activity (RAW-Dual [1]; [10]): 1.04
